Laboratory results: paper PMC5733242
Results are given in words; binding and its absence hold for the method and conditions named. In cells and extracts the contact can be indirect. Some binding calls cover weakened binding; strength is not graded here. Values belong to the substance of their own block, whether it stands above or below them.

Sequences of proteins named here, by UniProt entry; tags and fusion partners are left off. A change or cut given only in a name is not applied to a line headed by its entry. A line that says so, or that is headed by a name, gives the form on record, which may keep a tag or linker.
UniProt O00571: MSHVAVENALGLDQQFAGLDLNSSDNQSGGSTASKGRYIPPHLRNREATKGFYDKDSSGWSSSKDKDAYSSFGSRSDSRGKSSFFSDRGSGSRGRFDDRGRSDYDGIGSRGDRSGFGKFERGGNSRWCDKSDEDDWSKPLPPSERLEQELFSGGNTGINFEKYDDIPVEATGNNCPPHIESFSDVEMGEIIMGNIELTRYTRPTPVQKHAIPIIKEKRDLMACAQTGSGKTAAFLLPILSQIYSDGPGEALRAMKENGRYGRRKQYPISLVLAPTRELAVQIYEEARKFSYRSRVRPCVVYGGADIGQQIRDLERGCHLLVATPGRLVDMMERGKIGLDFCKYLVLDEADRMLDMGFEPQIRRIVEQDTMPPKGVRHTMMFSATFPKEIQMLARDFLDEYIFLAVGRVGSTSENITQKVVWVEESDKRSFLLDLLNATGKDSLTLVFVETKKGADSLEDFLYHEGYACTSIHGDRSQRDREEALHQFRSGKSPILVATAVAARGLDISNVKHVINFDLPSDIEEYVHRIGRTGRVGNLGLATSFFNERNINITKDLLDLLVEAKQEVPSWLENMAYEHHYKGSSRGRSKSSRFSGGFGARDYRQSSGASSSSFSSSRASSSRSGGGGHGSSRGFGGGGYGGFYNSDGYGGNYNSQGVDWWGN
DDX3-ΔATP (O00571, form named): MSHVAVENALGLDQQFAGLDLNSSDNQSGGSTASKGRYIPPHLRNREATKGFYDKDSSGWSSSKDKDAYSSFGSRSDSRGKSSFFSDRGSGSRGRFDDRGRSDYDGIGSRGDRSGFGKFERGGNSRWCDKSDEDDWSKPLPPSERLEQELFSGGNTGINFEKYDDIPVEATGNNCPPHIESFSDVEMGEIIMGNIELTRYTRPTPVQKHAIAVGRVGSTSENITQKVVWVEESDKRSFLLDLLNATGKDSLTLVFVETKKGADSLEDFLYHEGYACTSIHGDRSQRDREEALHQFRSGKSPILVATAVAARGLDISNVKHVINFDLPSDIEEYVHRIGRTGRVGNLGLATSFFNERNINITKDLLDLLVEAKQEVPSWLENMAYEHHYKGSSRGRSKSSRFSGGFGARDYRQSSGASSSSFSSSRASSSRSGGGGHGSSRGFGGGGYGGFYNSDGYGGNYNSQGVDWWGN
UniProt Q9UKV8: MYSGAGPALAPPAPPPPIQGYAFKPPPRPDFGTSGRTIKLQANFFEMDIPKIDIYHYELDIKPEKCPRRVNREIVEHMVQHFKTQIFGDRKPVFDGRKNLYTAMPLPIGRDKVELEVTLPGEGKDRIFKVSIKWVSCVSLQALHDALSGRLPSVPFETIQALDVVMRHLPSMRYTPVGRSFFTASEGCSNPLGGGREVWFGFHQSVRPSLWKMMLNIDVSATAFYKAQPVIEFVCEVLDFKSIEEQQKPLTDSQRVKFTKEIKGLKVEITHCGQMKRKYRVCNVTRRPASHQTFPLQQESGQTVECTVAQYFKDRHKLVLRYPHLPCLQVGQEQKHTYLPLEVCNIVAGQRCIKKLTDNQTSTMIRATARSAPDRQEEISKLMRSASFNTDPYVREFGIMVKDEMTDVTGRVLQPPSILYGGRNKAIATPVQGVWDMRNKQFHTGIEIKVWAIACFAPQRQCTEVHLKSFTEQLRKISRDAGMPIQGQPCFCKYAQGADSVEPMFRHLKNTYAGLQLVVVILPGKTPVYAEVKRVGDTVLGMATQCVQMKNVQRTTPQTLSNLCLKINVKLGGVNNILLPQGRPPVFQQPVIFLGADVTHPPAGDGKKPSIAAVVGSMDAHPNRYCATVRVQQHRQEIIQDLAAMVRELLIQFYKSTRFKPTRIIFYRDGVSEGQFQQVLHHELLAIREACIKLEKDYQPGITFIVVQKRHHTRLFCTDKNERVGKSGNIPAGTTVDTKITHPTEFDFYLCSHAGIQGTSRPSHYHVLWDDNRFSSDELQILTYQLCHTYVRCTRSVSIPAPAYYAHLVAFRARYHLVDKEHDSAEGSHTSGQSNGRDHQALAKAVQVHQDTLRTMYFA

Columns and labels:
[1] = biological target: T1, DSBH domain of ALKBH5 alone (UniProt Q6P6C2); assay: co-IP; HEK293T cells co-transfected with FLAG-DDX3 and HA-tagged constructs (cell line not named for the ALKBH5 deletion series); cells UV cross-linked, modified RIPA lysis buffer (150 mM NaCl, 50 mM Tris pH 8.0, 1% Nonidet P-40, 0.5% deoxycholate), sonicated; antibody on Dynabeads Protein G, 2 h at 4°C; Western blot; DDX3-ALKBH5 also with or without RNase A
T1 sequence: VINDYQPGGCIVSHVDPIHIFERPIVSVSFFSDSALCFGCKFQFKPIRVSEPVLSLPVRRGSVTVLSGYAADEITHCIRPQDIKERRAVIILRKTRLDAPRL

[2] = biological target: HA-ALKBH5 (full-length ALKBH5) (UniProt Q6P6C2); assay: as above
[3] = biological target: T2, METTL14 (UniProt Q9HCE5); assay: as above
T2 sequence: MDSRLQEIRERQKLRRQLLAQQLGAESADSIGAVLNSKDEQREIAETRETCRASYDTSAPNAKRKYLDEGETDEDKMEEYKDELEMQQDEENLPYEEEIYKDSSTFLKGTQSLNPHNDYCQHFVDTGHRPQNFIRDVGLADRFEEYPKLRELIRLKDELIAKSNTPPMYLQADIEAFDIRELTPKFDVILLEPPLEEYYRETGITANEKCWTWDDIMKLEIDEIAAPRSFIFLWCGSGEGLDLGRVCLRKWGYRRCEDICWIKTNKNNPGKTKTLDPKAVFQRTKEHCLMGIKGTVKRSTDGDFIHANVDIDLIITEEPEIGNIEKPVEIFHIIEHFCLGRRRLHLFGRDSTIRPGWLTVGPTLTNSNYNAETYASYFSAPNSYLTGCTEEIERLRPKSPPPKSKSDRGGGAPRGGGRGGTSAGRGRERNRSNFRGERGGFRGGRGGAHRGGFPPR

[4] = biological target: T3, WTAP (UniProt Q15007); assay: as above
T3 sequence: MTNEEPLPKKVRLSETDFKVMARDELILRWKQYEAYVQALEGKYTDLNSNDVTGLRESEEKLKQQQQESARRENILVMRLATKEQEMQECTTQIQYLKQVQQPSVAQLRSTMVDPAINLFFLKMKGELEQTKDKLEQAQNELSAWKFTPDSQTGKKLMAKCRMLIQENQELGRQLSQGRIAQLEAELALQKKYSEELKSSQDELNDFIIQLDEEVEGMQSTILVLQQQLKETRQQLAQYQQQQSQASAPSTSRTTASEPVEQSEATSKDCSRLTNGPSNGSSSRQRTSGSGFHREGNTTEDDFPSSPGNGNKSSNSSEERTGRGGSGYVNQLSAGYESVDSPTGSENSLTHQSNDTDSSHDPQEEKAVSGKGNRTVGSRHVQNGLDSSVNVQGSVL

[5] = biological target: endogenous DDX3 (human (endogenous in HEK293T)) (UniProt O00571); assay: co-IP; endogenous proteins; IP with antibodies against DDX3 or AGO2 on Dynabeads Protein G, Western blot; HEK293T for DDX3-AGO2, cell line not stated for DDX3-ALKBH5
[6] = biological target: endogenous AGO2 (human (endogenous in HEK293T)) (UniProt Q9UKV8); assay: as above

- binding [2]: no binding
Substance: DDX3-ΔATP (from UniProt O00571 1-662) (domain or fragment)

- binding [5]: binds
Substance: endogenous AGO2 (from UniProt Q9UKV8 1-859)

The remaining lines, values behind:

Substance: ATP-binding domain of DDX3 alone (from UniProt O00571 212-403) (domain or fragment)
- binding [1]: binds

Substance: FLAG-DDX3 (full-length DDX3) (from UniProt O00571 1-662)
- binding [3]: no binding
- binding [2]: binds
- binding [4]: no binding

Substance: endogenous DDX3 (from UniProt O00571 1-662)
- binding [6]: binds
